# Assay results from the supplement of paper PMC11417369.
# The list shows a part of the results.
# System: PfSIP2 AP2 domain 1 (GST-tagged)
# Experiment: gcPBM binding intensity (ln(normalized median fluorescence intensity)); higher = stronger DNA binding
# Summary of the method: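 Plasmodium falciparum DNA-binding domains carrying a GST tag were expressed in E. coli and applied for 1 h, at about 25 μg on average, to an Agilent 4 × 180k array. The array held primer-extended double-stranded 36-bp intergenic genomic probes together with negative controls, and binding took place in 1× PBS with 1% milk, 0.2 mg/ml BSA, 0.5% salmon testes DNA and 0.03% Triton X-100. An Alexa488 anti-GST antibody detected bound protein, and the array was scanned at 488 nm. Binding intensity is taken as the highest Masliner-normalised natural-log median intensity across replicate spots of either probe orientation.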
row,Sequence,gcPBM binding intensity (ln)
1,TTTTTTCAAATTATTCGATATGTAAAAAAATAAAAT [GTGCAC_negctrl_site241],6.97
2,AAATATTTGTGTGGTTGTACTATAATGATAAAAATA [XGTACX_site7703],7.27
3,TTTTTTTTTTTTGAGTGTACAAGATTGTTGTTCCAA [XGTACX_site6120],6.9
4,GGTTTGAATTTTTAAGTGCATATAACATAAATGAAA,8.89
5,TTATATTATATATATATTATATATATGTATGCATAA [TGCATGCA_negctrl_site481],7.16
6,CATACATACAAACACACACACATATATATATATATA [CACACA_site43],9.75
7,AATAAGTGTTGATTCTTAAAATGACCATATAATAAT [TGCATGCA_negctrl_site221],7.09
8,TCATATTTACAAAAAGGTATTAATAAATAAAATATT [CACACA_negctrl_site259],6.82
9,ATATTAGGGTCATGAACACACAAAAAAAAAAAAAAA [CACACA_site937],7.04
10,TATCTTTTATAAGTGACACACATAAATATTTAAATT [CACACA_site833],7.03
11,GCTATCATATCATGTTGTACACAACCTCAAAATGAA [XGTACX_site8757],7.4
12,TTTAATTCTTATATTTGTACAGATTCATAATTAAAT [XGTACX_site7465],6.88
13,CGTTTATTAAACTTGACACACACACCCCCACATATA [CACACA_site8151],7.84
14,AATCGATAACAATGTAGTACCAGAAAAATAAATATT [XGTACX_site8501],6.99
15,TATATATATATATATGCATGCCATATGATATATATA [TGCATGCA_site109],9.35
16,ATTATATCACTGTGTTGTACTTCTTATATAAAAATA [XGTACX_site2333],7.02
17,ACATATCGGGTGCATTAACACACATTTATTTGAATA [CACACA_site8736],11.6
18,TCCGTATAATTTTGCACACGAATATAAATTTGATAA [CACACA_site136],7.6
19,ATAAAAATAAAATGGACACACATATATACATATTTG [CACACA_site3277],6.84

row,Sequence,gcPBM binding intensity (ln)
1,AATTATAATAAATAACGTACAAAAAATAAATTATTT [XGTACX_site3627],7.1
2,TATATATTCATGTGTACACACAAAAAAAAATAAAGT [CACACA_site2207],7.51
3,ATAAGCGAATATATATCACACACAAAAAAATCAGAC [CACACA_site8657],7.65
4,TTTTTTTTTGATATTTGTACTTAAGTAAATATTATA [XGTACX_site3843],6.88
5,ATATTACACAGATATGCACACATTGTAGTTATTTAT [CACACA_site5454],8.57
6,AAAAAGGAAATTTACACACACATATAACATACATTA [CACACA_site7534],7.03
7,AATGTATTATGTAATAGTACGTATAATATCTTATTT [XGTACX_site3],6.89
8,ATACATATCTATAATACACACATAAATGTAACATTT [CACACA_site7621],7.32
9,TTCTACGTTTTAAAAAAAAAAAAAAAAAAAAAAAAA [XGTACX_negctrl_site6],6.95
10,TGAAGATAAAAATATGCACACATATATATATATATA [CACACA_site8027],9.77
11,CATAAAAATGAACATACACACATATATTTATTTATA [CACACA_site7222],6.85
12,ACATATTATAGGAATACACACAAAAACTTATCGGTA [CACACA_site7587],7.01
13,ATTATATATATTGGAGTGCATATATAGTATTTTATA,8.45
14,ATAGAAATCTATTGTGATTATTATTTTATTTTTAGT [XGTACX_negctrl_site605],6.72
15,AAAAAGAATATAAGTAGTACAGTGCATATAATAATT [XGTACX_site617],8.39
16,TTTTACTCTTAAAATAATAAAAAATATTCACATTTA [CACACA_negctrl_site1508],6.6
17,AATTAATGTTTTGTCACACAGTATGATTATATATAT [CACACA_site6143],7.4
18,TATAATTTTTTTAATACACACAAATATTTATATATA [CACACA_site3042],6.87
19,TATATATACATATACGCATGTAAATTCAAAAGTAAA [TGCATGCA_site956],7.12

row,Sequence,gcPBM binding intensity (ln)
1,AAGAGAAATGGGCACACACACACATATTATATATAT [CACACA_site1531],7.66
2,TTAGTATATTTTTCCTGTACGTACTCAGATACAAAT [XGTACX_site7397],7.61
3,TACACATTATGTATCATACACACAAATAAATATATA [CACACA_site608],7.1
4,TTAAATAATTTTTAATGTACATTAAATTTATTATTA [XGTACX_site261],6.86
5,AATAATAACAAATGAACACACATATATATGAGCAAA [CACACA_site2121],6.86
6,TTGATATAAAAAGAAAGTACTTTATAGATGTTTATT [XGTACX_site8144],6.93
7,TATAAAAATATATATATATATATATATATATATATA [TGCATGCA_negctrl_site541],9.37
8,TTCTCCATCAGATACTGTACATAATATATATAATAT [XGTACX_site8827],7.31
9,TGTATAACCTGTGTTACACACATTAGAATTTATATA [CACACA_site6393],6.82
10,GCATCATTTATTTGCACACCTATTATATACTTTTTA [CACACA_site2098],7.38
11,TACATAAACTTTATAACACACACTTATATATATATA [CACACA_site1106],9.34
12,TATATAAAGATATATACACACAAAAAAAAAAAAAAA [CACACA_site6778],7.06
13,ACGTATGTATATTACACACATACATATTATTCACTA [CACACA_site204],7.03
14,TATTTATAACATTGTACACACAAAGAAATAATATTA [CACACA_site7422],7.29
15,CATATATAACATATAACACACATACTTAGTATTACA [CACACA_site5674],6.98
16,ATGATAAACATGGATACACACATATATATTACATAT [CACACA_site1576],7.17
17,ATAATATTTTATATAGTGCATTTGCTCATTATATAT [GTGCAC_site9528],7.96
18,ACATATATATACTATCGATTAATAAATTTGTTTTTT [CACACA_negctrl_site881],7
19,TGAGTATATATAAATACACACCAAATGTTAATATAT [CACACA_site5022],6.8
